Read counts are not given, so values of variants with three or more changes are uncertain.
B1: LINE1-mini (parent)
chain: GGCAGAGCUCAACACAGCGUGGCAAAGUGGCUGUGGCUAGACUGCC

Variants of: B1
Assay: self-cleavage, relative activity (ratio to wild type); higher = more cleavage; in vitro, sequencing; the parent is a self-cleaving ribozyme
Variant G5U C10A U32G has a self-cleavage of 0.08. G5U A11C U38A gave a self-cleavage of 0.02. With G5C A14U G35U the self-cleavage was 0.02. For G5U C10A G17U C37G A39U, the self-cleavage was 0. G5C A14U A16C G22A U43A showed a self-cleavage of 0.11. For G5U A12G G29C G40U, the self-cleavage was 0.06. With G5U A25G G29A U38A the self-cleavage was 0.01. For G5U C10G G21C C23A, the self-cleavage was 0.02. In the case of G5U C8G C13G C23A, the self-cleavage is reported as 0.15. Variant G5C C8G C13A G29U has a self-cleavage of 1.22. With G5U C8A A11G G22A G44C the self-cleavage was 0.02. Work on G5C G19U G22A yielded a self-cleavage of 0.07. In the case of G5C A6G A26G U38A, the self-cleavage is reported as 0.14. In the case of G5U C15G A24G G40C, the self-cleavage is reported as 0.03. Variant G5U C8A G29A has a self-cleavage of 0.02. G5U C15U A26G U34A C37U showed a self-cleavage of 0.02. With G5C C18U C23A G27U C31G G40U C45G the self-cleavage was 0.01. G5U C23G C45G showed a self-cleavage of 0.05. G5C C8A C13A G35C gave a self-cleavage of 0.2. With G5C C31G U34A C45A the self-cleavage was 0.01. In the case of G5U C10G A14C U20A, the self-cleavage is reported as 0.01. In the case of G5C A41G G44A, the self-cleavage is reported as 0.04. In the case of G5U C10G G22C C23U, the self-cleavage is reported as 0.01. G5C G40U U43A showed a self-cleavage of 0.02. Work on G5C G19A A24C G30U yielded a self-cleavage of 0.04. G5C C13G G35A showed a self-cleavage of 0. G5U A24G A41G showed a self-cleavage of 0.02. G5C G21A G22U U34A showed a self-cleavage of 0.04. Work on G5U C8U A11C G30U G35A yielded a self-cleavage of 0.01. For G5U C10A G22A, the self-cleavage was 0.03. G5C A11U C45U gave a self-cleavage of 0.02. Variant G5A U32G G33U has a self-cleavage of 0.02. Variant G5U C15U G19A A39G has a self-cleavage of 0.02. G5U A26G G30U gave a self-cleavage of 0.05. Work on G5C C13G G33C U43C C45U yielded a self-cleavage of 0.07. For G5C A11G C37A, the self-cleavage was 0.02. Variant G5U A12G C18G G21U has a self-cleavage of 0.02. For G5C A11G C37U C42U, the self-cleavage was 0. G5C C18U G29C showed a self-cleavage of 0.02. For G5C C18U U28C G44C, the self-cleavage was 0.04. For G5U A12G C23U G30U A39U, the self-cleavage was 0.02. In the case of G5C C10A U38C, the self-cleavage is reported as 0.04. For G5C C23U U28C C45A, the self-cleavage was 0.07. G5U A16U A26C A41C C46G gave a self-cleavage of 0. In the case of G5U A11G G22C, the self-cleavage is reported as 0.02. Variant G5C C8U A16G C23U C42U G44A has a self-cleavage of 0.03. For G5C A16C G30A, the self-cleavage was 0.05. G5C A6U G30C C42U C46A showed a self-cleavage of 0.02. Work on G5C G22U U28C U34C yielded a self-cleavage of 0. In the case of G5C C10U G22C, the self-cleavage is reported as 0.01. G5U A14G A39U gave a self-cleavage of 0.01. Work on G5U A11U C45U yielded a self-cleavage of 0.01. Variant G5C U9A A14U C15G C45A has a self-cleavage of 0.04. With G5U C18G G22C U43A C46U the self-cleavage was 0.04. G5U A41C C46U gave a self-cleavage of 0.07. With G5U C10A A12C C15A the self-cleavage was 0.01. In the case of G5C G7C U9A, the self-cleavage is reported as 0.03. With G5C G21A U28G G29C G35A the self-cleavage was 0.01. For G5C C13A A25C G33A C37A, the self-cleavage was 0.14. With G5C C13U C15A U20A A24U the self-cleavage was 0.01. In the case of G5A U32G C46U, the self-cleavage is reported as 0.05. In the case of G5U A24U G35C U43C, the self-cleavage is reported as 0.06. With G5U C10A A16C the self-cleavage was 0.03. With G5C G19U C23G G35A the self-cleavage was 0.02. With G5C C15U C37G C46U the self-cleavage was 0.06. G5C A6U G7U U34C showed a self-cleavage of 0.02. Work on G5C C8A U20G G29C yielded a self-cleavage of 0.06. G5C C18U G40A showed a self-cleavage of 0.02. In the case of G5U C13G G35C, the self-cleavage is reported as 0.13. Work on G5U C8A G21C G36A yielded a self-cleavage of 0.96. G5C C18G A25G G33U C46G gave a self-cleavage of 0.01. G5C C10A C18U G35U showed a self-cleavage of 0. Work on G5C A12G G33A yielded a self-cleavage of 0.04. G5C G19U G22A G36A gave a self-cleavage of 0.09. G5C G7U C18A A24C G30C G33C G35C gave a self-cleavage of 0.04. With G5U A25C G36U C42G the self-cleavage was 0. G5U C13G G19A U20C G35U showed a self-cleavage of 0.03. Work on G5U C18A C31U G33A yielded a self-cleavage of 0.04. With G5C C23G C31A C37G C46U the self-cleavage was 0.02. G5U C8A G17U gave a self-cleavage of 0.11. G5U C10A A16G G27C G44A gave a self-cleavage of 0.02. G5C U9G G30C G36A G40U gave a self-cleavage of 0.01. For G5C C18G G21U, the self-cleavage was 0.03. Variant G5C C15U A24U U43C has a self-cleavage of 0.05. In the case of G5C C13G G17A, the self-cleavage is reported as 0.03. For G5C G22C A26G U28G, the self-cleavage was 0.01. With G5C C10U G22U G35U G36C the self-cleavage was 0.03. G5U A16U G36A gave a self-cleavage of 0.03. G5C C10A A16G gave a self-cleavage of 0.02. For G5U C10A G21A G27U G35C C45A, the self-cleavage was 0. G5C G7A G30A U43C gave a self-cleavage of 0.3. G5C U9G C31U showed a self-cleavage of 0.02. G5U C8U G21A G29A A39G showed a self-cleavage of 0.02. For G5C A11U C15G, the self-cleavage was 0.02. Work on G5U C15G G21A yielded a self-cleavage of 0.07. Variant G5C C15U G27A C37A G40U has a self-cleavage of 0.15. In the case of G5C U28A G29U A41C, the self-cleavage is reported as 0.04. G5U C15U G19C C46A showed a self-cleavage of 0.43. G5U A6G C31U G40A showed a self-cleavage of 0. For G5C A14U G21C, the self-cleavage was 0.04. Variant G5U A6U C15A A26C has a self-cleavage of 0.04. Work on G5C G21A G27A G36A yielded a self-cleavage of 0.05. G5C A14C U28G G30C A39C showed a self-cleavage of 0.01. For G5U C13U G29A, the self-cleavage was 0.02. Variant G5C G7C G17U A41C has a self-cleavage of 0.04. G5C A25U U34C U38G gave a self-cleavage of 0.02. Variant G5C C23A G30U U38C has a self-cleavage of 0.03. G5C G27A G35A gave a self-cleavage of 0.05. Work on G5C G17U G40C yielded a self-cleavage of 0.05. G5C G27U C45A gave a self-cleavage of 0.12. With G5C A24U G35A C37A the self-cleavage was 0.09. G5C A12C U28C U32G showed a self-cleavage of 0.01. G5U A6U C10U G17U U38G G40A gave a self-cleavage of 0.07. Work on G5C C31U U32G yielded a self-cleavage of 0.1. Variant G5U C15A G36U G40U has a self-cleavage of 0.01. In the case of G5C G22A G29A U34A, the self-cleavage is reported as 0.23. G5C G7C C13U C46A gave a self-cleavage of 0.01. Work on G5C C8A C18G U20A G29U G30A G33C U38A yielded a self-cleavage of 0.04. Variant G5C G7U A11C U34C G36A has a self-cleavage of 0.05. Variant G5U C10A C15U C45G has a self-cleavage of 0.02. Work on G5U A12G A25G yielded a self-cleavage of 0.07. With G5C G19C G21U A39C the self-cleavage was 0.02. G5C G17C U20A G21U A24U C46A gave a self-cleavage of 0. In the case of G5C G17U C23G, the self-cleavage is reported as 0.02. With G5C C8G U9C C23A the self-cleavage was 0.03. Work on G5C U38G A41C yielded a self-cleavage of 0.04. G5C A14C C46G showed a self-cleavage of 0.02. Work on G5U C8U A39C yielded a self-cleavage of 0.39. Variant G5C C10U G22C C31A has a self-cleavage of 0.02. G5C C8G C10A A24C gave a self-cleavage of 0.01. In the case of G5C G7A C10A A16C, the self-cleavage is reported as 0.07. G5C A25G A26G C45G gave a self-cleavage of 0.01. In the case of G5C U9A C13U G19U G21C U38G, the self-cleavage is reported as 0.05. G5U A6C G7C U9C C18U G21U A24G U34G showed a self-cleavage of 0.01. Work on G5C G7U C13A C42G yielded a self-cleavage of 0. G5C C18U C31U U32G U34A showed a self-cleavage of 0.02. G5C C8A C10A C31A U32A gave a self-cleavage of 0.05. G5C A11U A12U A16G C37G gave a self-cleavage of 0.01. G5U C10A A16C G29U C42A showed a self-cleavage of 0.01. Variant G5C A16C C23U G30U has a self-cleavage of 0.04. Work on G5U A12U G22A U34G C37A yielded a self-cleavage of 0.02. G5C G7C C15G G27U U32C gave a self-cleavage of 0.01. With G5C C13U U34G A41G the self-cleavage was 0.02. For G5U C10U C15G A24U C31A C42A C46G, the self-cleavage was 0.02. With G5U A14G G27C A41U the self-cleavage was 0.04. For G5U C13A A24G U28G C42G, the self-cleavage was 0.03. G5U A11G C13A C15A gave a self-cleavage of 0.01. G5U A12C A25U G36A showed a self-cleavage of 0.02. With G5U C18U C42U the self-cleavage was 0.02. With G5C G17C U20G the self-cleavage was 0.03. Variant G5C G29U G40A has a self-cleavage of 0.06. For G5C C15G C18U C23G A26C G27U, the self-cleavage was 0.01. With G5C U9A C18G U32A the self-cleavage was 0.06. G5U A41U C46A gave a self-cleavage of 0.13. With G5U C13A C37G the self-cleavage was 0.02. Work on G5C G7C C13A G17U U32G yielded a self-cleavage of 0.01. G5C G7U A24U G44U gave a self-cleavage of 0.03. With G5C C13G G19U the self-cleavage was 0.03. In the case of G5U A14U A16C G29U U32A, the self-cleavage is reported as 0.11. With G5C G27C U43C the self-cleavage was 0.04. G5C C23G A25C G27C gave a self-cleavage of 0.03. G5U C8G C10A A16U gave a self-cleavage of 0.01. G5U C10G A12G C13G G40C showed a self-cleavage of 0.01. Work on G5C G19C U43G C45U yielded a self-cleavage of 0.01. For G5U C18U U32G, the self-cleavage was 0.03. Variant G5C U20G G21U has a self-cleavage of 0.02. Variant G5U C10A A12C has a self-cleavage of 0.04.

Reference: the RNAGym collection of RNA variant scans (doi:10.7554/elife.90254)
